Reference: PubChem BioAssay AID651815 (National Center for Advancing Translational Sciences (NCATS), 2012)
The whole screen tested about 2,100 compounds, of which about 1,100 (52%) were called active. So high a share suggests a set chosen from earlier hits. This list was built around the results that the source calls inconclusive (neither active nor inactive); the mix of calls is not that of the screen. The call rests on the fitted dose curve; in most records, active means well fitted inhibition curve with a large enough effect; inconclusive means small, poorly fitted or top-dose-only effect; inactive means no such curve, though single readings can be large or run the other way. No potency is given beside an inconclusive call; the fits are too rough.

Biological target: DNA dC->dU-editing enzyme APOBEC-3F (Homo sapiens) (UniProt Q8IUX4)
Experiment: qHTS for inhibitors of Vif-A3F interactions: Cherry picks counterscreen; further: nearly all actives have a fitted effect of over 65% in size
Details: HeLa A3F-eYFP/Vif cells, eYFP fluorescence, 24 h; series mostly up to 46.1 µM
Summary of the method: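 Rescue of Vif-driven A3F-eYFP degradation read as cellular eYFP fluorescence after 24 h compound exposure (several concentrations) in stable HeLa cells; MG132 (2 mM stock) as positive control.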
Potency means the concentration at half of the fitted maximal effect; tags describe the fitted curve by direction and shape.

UniProt Q8IUX4, sequence (Q8IUX4 whole entry, looked up): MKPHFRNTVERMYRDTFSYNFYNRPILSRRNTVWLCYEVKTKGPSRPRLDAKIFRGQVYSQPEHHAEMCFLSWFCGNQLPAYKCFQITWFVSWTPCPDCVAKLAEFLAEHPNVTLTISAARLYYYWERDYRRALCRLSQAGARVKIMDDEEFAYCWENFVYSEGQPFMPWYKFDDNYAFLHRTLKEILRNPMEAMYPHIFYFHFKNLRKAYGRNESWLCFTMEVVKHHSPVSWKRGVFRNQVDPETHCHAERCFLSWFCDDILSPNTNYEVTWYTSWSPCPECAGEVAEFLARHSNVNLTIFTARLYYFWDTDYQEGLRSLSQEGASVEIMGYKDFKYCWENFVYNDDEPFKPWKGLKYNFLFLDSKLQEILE

Row | Compound | Potency
1 | Cc1ccccc1NC(=O)c1ccc2c(c1)c(C)c(C)n2Cc1ccccc1 | active: 6.51 µM
2 | CCOC(=O)/C=c1\s/c(=C\c2c(OC)ccc3ccccc23)c(=O)n1CC(=O)NCC1CCCO1 (configuration not stated) | active: 4.61 µM
3 | CCOC(=O)c1c(C)[nH]c(C(=O)N/N=C/c2cccc(OC)c2)c1C | inconclusive [inhibitor, single point]
4 | CCOC(=O)N1CCN(C(=O)c2cc(-c3ccc(OCC)cc3)nc3ccccc23)CC1 | inconclusive [inhibitor, full curve]
5 | N#C/C(=C\c1cccnc1)c1nc2ccccc2[nH]1 | active: 14 µM
6 | CCNc1ccc(Br)cc(C(=O)/C=C/c2ccc(Cl)cc2)c1=O | inconclusive [inhibitor, single point]
7 | C=CCNc1nc(-c2ccccc2)c(C(=O)OCC)cc1C#N | inconclusive [inhibitor, full curve]
8 | C(=C\c1ccco1)/C1=NN(c2ccccc2)C(c2ccco2)C1 (configuration not stated) | inconclusive [inhibitor, single point]
9 | CCCCCS(=O)(=O)c1oc(-c2cccs2)nc1S(=O)(=O)c1ccc(C)cc1 | inconclusive [inhibitor, partial curve]
10 | CCOc1cc([N+](=O)[O-])cc2c1C(=O)Nc1ccccc1O2 | inconclusive [inhibitor, single point]
11 | COc1cc(C2Nc3ccc4ncccc4c3C3=C2C(=O)CCC3)cc(OC)c1O (configuration not stated) | active: 15.8 µM
12 | COCCCNC(=S)N/N=C/c1ccc(OC)cc1 | inactive
13 | COc1ccccc1N1CCN(C(=O)c2ccc3ncsc3c2)CC1 | inactive
14 | CCCN1C(=O)S/C(=C\c2ccc(N3CCOCC3)o2)C1=O | active: 3.96 µM
15 | Cc1ccc2nc(-c3ccccn3)c(Nc3ccccc3C)n2c1 | inactive
16 | O=C(COC(=O)C12CC3CC(CC(Cl)(C3)C1)C2)N1CCCCC1 | inactive
17 | COc1cc(/C=C2\SC(=S)N(NC(=O)c3ccccc3OC)C2=O)ccc1O | inactive
18 | O=C1NC(c2cccc(Cl)c2)Nc2ccccc21 (configuration not stated) | inconclusive [inhibitor, partial curve]
19 | Oc1ccccc1-c1nc(NCc2ccccc2)c2ccccc2n1 | inconclusive [inhibitor, single point]
20 | O=C(CCCCl)Oc1ccc2cc(-c3ccc4ccccc4n3)c(=O)oc2c1 | inactive
21 | CCCc1nc2c(C)cc(Br)cn2c1Cc1ccccc1 | inactive
22 | COc1cc(C(=O)OCC(=O)Nc2ccc(N3CCOCC3)cc2)ccc1OCC(C)C | inactive
23 | NC(=O)c1ccc(NC(=O)C#Cc2ccccc2)cc1 | inactive
24 | COc1ccc(NC(=O)C2(C)Cc3c(-c4cccc(C(N)=O)c4)ccnc3O2)cn1 (configuration not stated) | active: 12.5 µM

Row | Compound | Potency
25 | CC1=NOC(=O)/C1=C\c1ccc(-c2ccc(Br)cc2)o1 | inconclusive [inhibitor, single point]
26 | CSCC[C@H](NC(=O)[C@H](Cc1ccccc1)n1c(=O)[nH]c2ccccc2c1=O)C(=O)N1CCC[C@@H]1C(=O)O | inactive
27 | COc1ccc(N/C=C/C(=O)c2sc(-c3ccccc3)nc2C)cc1 | inconclusive [inhibitor, single point]
28 | COc1cc(/C=C2\SC(=Nc3ccccc3)NC2=O)cc(Cl)c1O | inconclusive [inhibitor, single point]
29 | Cc1ccc(CNC(=O)c2cccc3c2C(=O)c2ccc(N4CCCCC4)cc2S3(=O)=O)cc1 | inconclusive [inhibitor, single point]
30 | CCn1c(=O)c2cc(C(=O)NCCCOC)sc2c2ccccc21 | inconclusive [inhibitor, single point]
31 | O=C(NNc1ncc(C(F)(F)F)cc1Cl)c1c(Cl)cccc1Cl | active: 4.44 µM
32 | O=C(Nc1cc(C(F)(F)F)ccc1-n1cncn1)c1ccc([N+](=O)[O-])o1 | inconclusive [inhibitor, single point]
33 | COc1cc(/C=C2\COC/C(=C\c3ccc(O)c(OC)c3)C2=O)ccc1O | inconclusive [inhibitor, partial curve]
34 | CC(=O)Nc1ccc(/C=C/C(=O)c2ccc(-n3nncc3-c3ccccc3)cc2)cc1 | inconclusive [inhibitor, single point]
35 | O=C(NCCC1=CCCCC1)C1CCC(CNc2nc(=S)[nH]c3ccccc23)CC1 (configuration not stated) | inconclusive [inhibitor, single point]
36 | Cc1cc(SCC(=O)c2cccs2)nc2ccccc12 | inconclusive [inhibitor, single point]
37 | N#CCc1nc2ccc(S(=O)(=O)N3CCOCC3)cc2s1 | inconclusive [inhibitor, partial curve, poor fit]
38 | O=c1[nH]c2ccccc2nc1/C=C/c1ccc(F)cc1 | inconclusive [inhibitor, single point]
39 | CCCOc1cc(N(CC)CC)ccc1/C=C(/C#N)c1nc2ccc(C)cc2[nH]1 | inactive
40 | CC1(C(=O)NCc2ccco2)Cc2c(-c3ccc(C(N)=O)cc3)ccnc2O1 (configuration not stated) | inconclusive [inhibitor, partial curve]
41 | CC(=O)Nc1ccc2c(c1)Cc1ccc(Cl)cc1-2 | inactive
42 | COc1cc2c3nnc(-c4ccccc4)c-3cn(Cc3ccccc3F)c2cc1OC | active: 3.66 µM
43 | Cc1nc(SCC(=O)c2ccccc2)c(C#N)c(-c2ccco2)c1C(=O)NCc1ccco1 | inactive
44 | COc1cccc(C(=O)Nc2sc3c(c2C#N)CCN(C(C)=O)C3)c1 | inconclusive [inhibitor, full curve]
45 | Cc1ccc(/C=C2/NC(=O)N(Cc3ccccc3)C2=O)s1 | inconclusive [inhibitor, single point]
46 | Cc1cc(-c2ccccc2)c2c3c(c(-c4ccccc4)n2n1)c(=O)n(C)c(=O)n3C | inconclusive [inhibitor, single point]
47 | Cn1cc(/C=C/c2ccc3ccccc3n2)c2ccccc21 | inconclusive [inhibitor, single point]
48 | CCOc1cc(N(CC)CC)ccc1/C=C(/C#N)c1nc2ccccc2[nH]1 | inactive

Row | Compound | Potency
49 | COc1ccc2nc3sc(C(=O)Nc4cc(Cl)c(OC)cc4OC)cc3cc2c1 | active: 4.11 µM
50 | O=C(c1ccccn1)C1CCCN(Cc2cn[nH]c2-c2cc3ccccc3o2)C1 (configuration not stated) | inactive
51 | N#CC(C(=S)Nc1ccccc1)c1nc2ccccc2[nH]1 (configuration not stated) | inactive
52 | Cc1ccc(-c2cc(C(=O)N/N=C/C(Br)=C/c3ccccc3)n[nH]2)o1 | inconclusive [inhibitor, single point]
53 | CC(=O)Nc1cccc(-c2ccnc3c2CC(C(=O)Nc2ccc(Cl)cc2)O3)c1 (configuration not stated) | inconclusive [inhibitor, partial curve]
54 | C/C(=N\NC(N)=S)C12CC3CC(CC(C3)C1)C2 | inactive
55 | CCCNc1c(F)c(F)c2c(C)c3ccccc3nc2c1F | active: 15.8 µM
56 | O=C(Nc1nc2c(F)cccc2s1)c1ccc([N+](=O)[O-])o1 | inconclusive [inhibitor, single point]
57 | CC(C)Cn1c(N)c(C(=O)COC(=O)c2ccc([N+](=O)[O-])o2)c(=O)n(C)c1=O | inactive
58 | CC(C)CSC1=NSC2=NC(=O)/C(=C\c3coc4ccccc4c3=O)C(=N)N12 | inconclusive [inhibitor, single point]
59 | CCOC(=O)c1cccc(NC(=O)N2CC=C(c3c[nH]c4ccccc34)CC2)c1 | inconclusive [inhibitor, partial curve]
60 | O=C1N/C(=N\N=C\c2ccco2)SC1Cc1ccccc1[N+](=O)[O-] (configuration not stated) | inactive
61 | CCCN1CCc2c(sc(NC(=O)c3ccc(S(=O)(=O)N(C)c4ccccc4)cc3)c2C(N)=O)C1 | active: 23.1 µM
62 | CCCCOC(=O)Cn1c2ccc(OC)cc2c2nc3ccccc3nc21 | inconclusive [inhibitor, single point]
63 | CCOC(=O)N1C/C(=C\c2ccccc2)C(=O)/C(=C/c2ccccc2)C1 | inconclusive [inhibitor, partial curve]
64 | CCCOc1ccc(NC(=O)CC2C(=O)N(c3ccc(OCC)cc3)C(=S)N2C2CC2)cc1 (configuration not stated) | inconclusive [inhibitor, partial curve]
65 | Cc1c(-c2nnc(SCC(=O)Nc3ccccc3F)o2)nnn1-c1ccc(F)cc1 | inconclusive [inhibitor, partial curve]
66 | Cc1ccc(-c2nc(C=Nc3ccc(O)cc3)c(O)o2)cc1 | inconclusive [inhibitor, partial curve, poor fit]
67 | CCOC(=O)/C(C#N)=C\C=C1C=CN(C)C=C1 | inactive
68 | Nc1c(C(=O)Nc2ccc(S(=O)(=O)N3CCCC3)cc2)sc2nc3ccc(OC(F)(F)F)cc3cc12 | active: 23.1 µM
69 | Cc1ccc(NC(=O)/C(C#N)=C/c2ccc(C)s2)c(C)c1 | inconclusive [inhibitor, single point]
70 | COc1ccc(-c2ccnc(-c3ccc(O)cc3)n2)cc1 | inconclusive [inhibitor, full curve]
71 | Cc1cccc(CS(=O)(=O)c2ncc(Cl)c(C(=O)Nc3c(C)cccc3C)n2)c1 | inconclusive [inhibitor, partial curve, poor fit]
72 | CSc1ccc(C2NC(=O)c3ccccc3N2)cc1 (configuration not stated) | inconclusive [inhibitor, full curve]
